Source: PubChem BioAssay AID1030 (National Center for Advancing Translational Sciences (NCATS), 2008)
Screen size: about 220,000 compounds; about 16,000 (7.3%) were called active. This list was built around the results that the source calls inconclusive (neither active nor inactive); the mix of calls is not that of the screen. The call rests on the fitted dose curve; in most records, active means well fitted inhibition curve with a large enough effect (not every such curve was filed as active); inconclusive means small, poorly fitted or top-dose-only effect, or another doubt; inactive means no such curve, though single readings can be large or run the other way. Potencies beside an inconclusive call are fits to weak or partial responses and may not hold up.

target: Aldehyde dehydrogenase 1A1 (Homo sapiens) (UniProt P00352); assay: qHTS Assay for Inhibitors of Aldehyde Dehydrogenase 1 (ALDH1A1); conditions: Purified ALDH1A1, NADH fluorescence, propionaldehyde substrate; series mostly up to 75.3 µM; activity, negative = inhibition: at the top concentration;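 on activity, negative = inhibition: plate controls were no enzyme wells and a reference inhibitor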
Chain of UniProt P00352 (P00352 whole entry, looked up): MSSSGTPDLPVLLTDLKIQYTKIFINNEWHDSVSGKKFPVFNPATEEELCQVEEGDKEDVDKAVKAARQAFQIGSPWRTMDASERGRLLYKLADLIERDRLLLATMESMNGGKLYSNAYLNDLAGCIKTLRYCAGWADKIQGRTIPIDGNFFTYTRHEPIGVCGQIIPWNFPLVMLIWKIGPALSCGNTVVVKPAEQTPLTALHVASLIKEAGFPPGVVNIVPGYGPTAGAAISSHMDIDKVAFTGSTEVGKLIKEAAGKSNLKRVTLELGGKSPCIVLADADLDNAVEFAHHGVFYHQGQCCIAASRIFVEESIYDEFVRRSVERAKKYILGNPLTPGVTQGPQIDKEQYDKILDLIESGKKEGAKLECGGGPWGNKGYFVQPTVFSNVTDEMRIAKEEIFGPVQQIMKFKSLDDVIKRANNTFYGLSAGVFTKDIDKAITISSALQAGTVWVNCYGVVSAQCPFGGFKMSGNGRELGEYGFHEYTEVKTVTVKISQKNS
Potency means the concentration at half of the fitted maximal effect; tags describe the fitted curve by direction and shape.

Potency, active:
CCOc1ccc(Cc2onc3c2C(=O)CC(C)(C)C3)cc1OCC 8.91 µM
COc1ccc(Cl)cc1NC(=O)CNc1ccccc1F 31.6 µM
O=C(CSc1ncc(-c2ccccc2)n1C1CCCC1)N1CCc2ccccc21 3.55 µM
Cc1cccc(NC(=O)Cn2c(O)c(N=NC(=O)c3ccccc3O)c3ccccc32)c1 12.6 µM
Cc1ccccc1OCCc1c(C)[nH]c(=S)[nH]c1=O 20 µM
C=CCOC(=O)c1cc(-c2ccc(/C=C3\C(=O)NC(=O)C(C#N)=C3C)o2)ccc1Cl 10 µM
Clc1ccc(-c2nn3c(C4COc5ccccc5O4)nnc3s2)cc1 (stereo not drawn) 7.94 µM
CCc1cc2ccc(C)cc2nc1SCC(=O)N1CCN(C(=O)c2ccco2)CC1 10 µM
COC(=O)C(C)Sc1n[nH]c(=S)s1 (stereo not drawn) 20 µM
COc1ccc(NC(=O)c2ccc(-c3ccc([N+](=O)[O-])cc3)o2)cc1 2.24 µM

Potency, inconclusive:
COCCNC(=O)C(c1cccs1)N(C(=O)Cn1nnc2ccccc21)c1ccc2c(c1)OCO2 (stereo not drawn) 4.47 µM [inhibitor, full curve, poor fit]
CCOc1ccc(N2C(=O)CC(NCCc3ccc(S(N)(=O)=O)cc3)C2=O)cc1 (stereo not drawn) 39.8 µM [inhibitor, single point]
Cc1cc(C)cc(NC(=O)N2CCCN(c3ncccc3[N+](=O)[O-])CC2)c1 39.8 µM [inhibitor, single point]
CCOC(=O)c1c(CC(C)C)csc1N 39.8 µM [inhibitor, single point]
Nn1c(Nc2ccccc2)nc2sc3c(c2c1=O)CCC3 28.2 µM [inhibitor, single point]
Cc1nc(Sc2ccccc2)c(C#N)cc1-c1ccccc1 31.6 µM [inhibitor, single point]
C/C(=N/NC(=S)Nc1ccccc1)c1ccc2c(c1)OCO2 39.8 µM [inhibitor, single point]
Oc1ccc(Cl)cc1-c1cc(-c2ccco2)[nH]n1 39.8 µM [inhibitor, single point]
CCN1Cc2c(/C=C/c3ccccc3)nc3ccc(OC)cc3c2N(c2cccc(Cl)c2)C1 31.6 µM [inhibitor, partial curve]
Cc1cc(C)c2ccc(NN)nc2c1O 39.8 µM [inhibitor, partial curve, poor fit]
Cc1ccc(-c2cc3ccccc3nc2N2CCCC2)cc1 31.6 µM [inhibitor, single point]
CCOC(=O)c1cc2oc(C)cc2n1CC(=O)OC1CCCCC1 25.1 µM [inhibitor, partial curve]
O=C(NCCNc1ccc([N+](=O)[O-])cc1)c1ccc(Cl)cc1 39.8 µM [inhibitor, single point]
COc1ccc(-n2ncc3c(=O)n(CC(=O)N4CCCc5ccccc54)cnc32)cc1 28.2 µM [inhibitor, partial curve]
CCOc1ccc(-n2c(Cc3ccccc3)nnc2SCc2c(C)noc2C)cc1 22.4 µM [inhibitor, partial curve]
CCN(C(=O)COC(=O)c1ccc(COc2ccc3c(C)cc(=O)oc3c2)cc1)C1CCS(=O)(=O)C1 (stereo not drawn) 15.8 µM [inhibitor, partial curve]
Cc1csc2nc(=O)c3ccccc3n12 28.2 µM [inhibitor, partial curve]
Fc1ccc(-c2[nH]ncc2-c2nnnn2-c2ccccc2)c(F)c1 25.1 µM [inhibitor, partial curve]
COc1cccc(CN2CCN(C(=O)c3ccc(-c4ccccc4)cc3)CC2)c1OC 28.2 µM [inhibitor, single point]
Nc1ccc2nc(-c3ccccc3)sc2c1 28.2 µM [inhibitor, partial curve]
CCc1cc(C=C(Cl)Cl)oc(=O)c1C 31.6 µM [inhibitor, partial curve]
Cn1c(=O)c(-c2ccccc2)nc2cnc(Oc3ccccc3)nc21 28.2 µM [inhibitor, partial curve]
O=C(CCC1CCCN(c2ncccn2)C1)NCc1ccc(F)c(F)c1 (stereo not drawn) 39.8 µM [inhibitor, single point]
COc1ccc2[nH]cc(CCNc3ncnc4ccc(-c5c(C)noc5C)cc34)c2c1 20 µM [inhibitor, partial curve, poor fit]
CCOC(=O)c1cc(=O)n2nc(-c3ccccc3F)nc2s1 28.2 µM [inhibitor, partial curve]
COc1ccc([N+](=O)[O-])cc1NC(=O)CSCc1cc(C)cc(C)c1 39.8 µM [inhibitor, single point]
O=C(c1ccc([N+](=O)[O-])cc1)N1CCSC1c1ccccc1 (stereo not drawn) 39.8 µM [inhibitor, single point]
c1ccc2[nH]c(SCC3CCCCO3)nc2c1 (stereo not drawn) 12.6 µM [inhibitor, partial curve]
Cc1nn(CCC#N)c(NC(=O)c2ccccc2)c1P(=O)(Nc1ccc(Br)cc1)N1CCOCC1 (stereo not drawn) 39.8 µM [inhibitor, partial curve, poor fit]
Cc1ccc(Oc2nnc(-c3ccccc3)c3ccccc23)cc1 39.8 µM [inhibitor, single point]
Cc1ccc(-n2nnc(-c3cc4ccccc4nc3Cl)n2)cc1 35.5 µM [inhibitor, single point]
COc1ccc(Br)cc1CNC(=O)C1CCN(S(=O)(=O)N2CCC(C)CC2)CC1 39.8 µM [inhibitor, single point]
O=C(c1ccc2c3c(cccc13)CC2)C1CCCN(Cc2ccncc2)C1 (stereo not drawn) 39.8 µM [inhibitor, single point]
COc1cc2c(cc1/C=C/C(=O)O)OC(C)C2 (stereo not drawn) 28.2 µM [inhibitor, partial curve]
COCCCNC(=O)c1c(NC(=O)c2cccs2)sc2c1CCCC2 31.6 µM [inhibitor, single point]
O=C1CC(c2ccc3c(c2)OCO3)c2cc3c(cc2N1)OCCO3 (stereo not drawn) 20 µM [inhibitor, single point]
COc1ccc(Cn2nnnc2CN(Cc2cc3cc(C)ccc3[nH]c2=O)C2CCCC2)cc1 31.6 µM [inhibitor, single point]
COc1ccccc1-c1ccc(/C=C2/C=C(C)OC2=O)o1 28.2 µM [inhibitor, partial curve]
Nc1nnc(-c2cc3c(ccc4ccccc43)oc2=O)s1 14.1 µM [inhibitor, partial curve]
O=C1c2oc3ccc(Cl)cc3c(=O)c2C(c2ccco2)N1CCN1CCOCC1 (stereo not drawn) 22.4 µM [inhibitor, partial curve]
CC(=O)C1=C(O)C(=O)N(Cc2cccnc2)C1c1ccccc1 (stereo not drawn) 39.8 µM [inhibitor, single point]
FC(F)(F)c1ccccc1-c1cncnc1NCc1ccccc1 39.8 µM [inhibitor, single point]
O=C(c1ccc2ccccc2c1)C1CCCN(C(=O)CN2C(=O)CSC2=O)C1 (stereo not drawn) 39.8 µM [inhibitor, single point]
COc1ccc(-c2ccc(-c3noc(-c4ccccc4OC)n3)c(OC)n2)cc1 20 µM [inhibitor, partial curve]
Cc1cc(OC(=O)c2ccco2)c2c(C)cc(=O)oc2c1 7.94 µM [inhibitor, partial curve]

activity, negative = inhibition, inactive:
COc1ccc2c(c1)N(S(=O)(=O)c1ccccc1)CCC2=O 5.63%
O=C/C(=C\Nc1ccc(S(=O)(=O)CCO)cc1)c1nc2cc(Cl)ccc2o1 -10.5%
COc1cc(OC)cc(C(=O)n2nc(C)cc2C)c1 -6.44%
COc1cc(O)c(C(=O)c2ccccc2)cc1O -12.3%
COc1cc(OC)cc(-n2nnnc2SCC(=O)NCc2cccs2)c1 4.36%
CCc1cccc(C)c1NC(=O)c1ccccc1 15.7%
Cc1cccc(N2CCN(C(=O)CN3C(=O)NC(C)(C)C3=O)CC2)c1C 6.59%
COc1cc(CN/C(C)=C(\C#N)C(N)=O)cc(OC)c1OC 14.7%
Cc1cc(O)c(C=Nc2cccc(Cl)c2)c(=O)o1 -4.44%
COc1ccc(-c2nnc(SC)n2C)cc1 10.6%
CO/N=C/c1cn(-c2ccc(Cl)cc2)nn1 7.47%
Cc1ccc(C(=O)c2c[nH]cc2-c2ccccc2)cc1 4.21%
COC(=O)c1sc(SC)c(-c2ccon2)c1C -0.139%
COc1ccc(NC(=O)C2CCOC(C)(C)C2)cc1 (stereo not drawn) -11%
CCN1CCN(c2ccc([N+](=O)[O-])c(Sc3nc4ccccc4[nH]3)c2)CC1 3.07%
O=C(N=Nc1c(O)[nH]c2ccccc12)c1cc(NS(=O)(=O)c2cccs2)cc(NS(=O)(=O)c2cccs2)c1 3.31%
O=C(Nc1cccc(NC(=O)C2CC3CCCC(C2)C3=O)n1)C1CC2CCCC(C1)C2=O (stereo not drawn) -10.3%
CCN(CC)S(=O)(=O)c1ccc(-c2nnc(SCc3nnc(-c4ccccc4)o3)o2)cc1 8.76%
